# In the supplement of paper PMC8728848:
# The list shows a part of the results.
# How the values were obtained:
# Experiment in all cases: glycan array binding signal (z-score within array); higher = stronger binding
# Conditions in all cases: glycan notation: IUPAC condensed, linker removed
# GalNAc(b1-4)GlcNAc = biological target: GalNAc(b1-4)GlcNAc
# Procedure, shortened: (§1)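 Glycan array data were curated from 3228 arrays in the Consortium for Functional Glycomics database and kept only where the protein sequence was available. Glycan names were converted to IUPAC-condensed notation, and columns mapping to the same glycan were averaged. The binding signal is a within-array Z-score, averaged across arrays of the same protein sequence at different concentrations or buffers and across linkers. Negative Z-scores can be read as non-binding.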
# Glc(a1-4)Glc = biological target: Glc(a1-4)Glc
# Procedure, shortened: as §1
# Glc(a1-6)Glc(a1-6)Glc = biological target: Glc(a1-6)Glc(a1-6)Glc
# Procedure, shortened: as §1
# Glc(b1-4)Glc = biological target: Glc(b1-4)Glc
# Procedure, shortened: as §1
# Glc(b1-6)Glc = biological target: Glc(b1-6)Glc
# Procedure, shortened: as §1
# GlcA(b1-3)Gal = biological target: GlcA(b1-3)Gal
# Procedure, shortened: as §1
# GlcA(b1-6)Gal = biological target: GlcA(b1-6)Gal
# Procedure, shortened: as §1
# [1] = biological target: GlcNAc(a1-3)Gal(b1-4)GlcNAc
# Procedure, shortened: as §1
# [2] = biological target: GlcNAc(a1-6)Gal(b1-4)GlcNAc
# Procedure, shortened: as §1
# [3] = biological target: GlcNAc(b1-2)Gal(b1-3)GalNAc
# Procedure, shortened: as §1
# [4] = biological target: GlcNAc(b1-2)Gal(b1-3)GlcNAc
# Procedure, shortened: as §1
# [5] = biological target: GlcNAc(b1-2)Man(a1-3)[GlcNAc(b1-2)Man(a1-6)]Man(b1-4)GlcNAc(b1-4)GlcNAc
# Procedure, shortened: as §1
# GlcNAc(b1-3)Gal = biological target: GlcNAc(b1-3)Gal
# Procedure, shortened: as §1
# [6] = biological target: GlcNAc(b1-3)Gal(b1-3)GalNAc
# Procedure, shortened: as §1
# GlcNAc(b1-3)Gal(b1-4)Glc = biological target: GlcNAc(b1-3)Gal(b1-4)Glc
# Procedure, shortened: as §1
# [7] = biological target: GlcNAc(b1-3)Gal(b1-4)GlcNAc
# Procedure, shortened: as §1
# [8] = biological target: GlcNAc(b1-3)Gal(b1-4)GlcNAc(b1-3)Gal(b1-4)GlcNAc
# Procedure, shortened: as §1
# GlcNAc(b1-3)GalNAc = biological target: GlcNAc(b1-3)GalNAc
# Procedure, shortened: as §1
# [9] = biological target: GlcNAc(b1-3)[GlcNAc(b1-4)][GlcNAc(b1-6)]GlcNAc
# Procedure, shortened: as §1
# [10] = biological target: GlcNAc(b1-3)[GlcNAc(b1-6)]Gal(b1-4)GlcNAc
# Procedure, shortened: as §1
# [11] = biological target: GlcNAc(b1-3)[GlcNAc(b1-6)]GalNAc
# Procedure, shortened: as §1
# [12] = biological target: GlcNAc(b1-3)[GlcNAc(b1-6)]GlcNAc
# Procedure, shortened: as §1
# [13] = biological target: GlcNAc(b1-3)[GlcNAc(b1-6)]GlcNAc(b1-4)GlcNAc
# Procedure, shortened: as §1
# [14] = biological target: GlcNAc(b1-4)Gal(b1-4)GlcNAc
# Procedure, shortened: as §1
# [15] = biological target: GlcNAc(b1-4)GlcNAc(b1-4)GlcNAc
# Procedure, shortened: as §1
# [16] = biological target: GlcNAc(b1-4)GlcNAc(b1-4)GlcNAc(b1-4)GlcNAc(b1-4)GlcNAc
# Procedure, shortened: as §1
# [17] = biological target: GlcNAc(b1-4)GlcNAc(b1-4)GlcNAc(b1-4)GlcNAc(b1-4)GlcNAc(b1-4)GlcNAc
# Procedure, shortened: as §1
# [18] = biological target: GlcNAc(b1-4)[GlcNAc(b1-6)]GalNAc
# Procedure, shortened: as §1
# [19] = biological target: GlcNAc(b1-6)Gal(b1-4)GlcNAc
# Procedure, shortened: as §1
# GlcNAc(b1-6)GalNAc = biological target: GlcNAc(b1-6)GalNAc
# Procedure, shortened: as §1
# Kdn(a2-3)Gal(b1-3)GlcNAc = biological target: Kdn(a2-3)Gal(b1-3)GlcNAc
# Procedure, shortened: as §1
# Kdn(a2-3)Gal(b1-4)GlcNAc = biological target: Kdn(a2-3)Gal(b1-4)GlcNAc
# Procedure, shortened: as §1
# [20] = biological target: Man(a1-2)Man(a1-2)Man(a1-3)Man
# Procedure, shortened: as §1
# [21] = biological target: Man(a1-2)Man(a1-2)Man(a1-3)[Man(a1-2)Man(a1-3)[Man(a1-2)Man(a1-6)]Man(a1-6)]Man(b1-4)GlcNAc(b1-4)GlcNAc
# Procedure, shortened: as §1
# [22] = biological target: Man(a1-2)Man(a1-2)Man(a1-3)[Man(a1-2)Man(a1-6)[Man(a1-3)]Man(a1-6)]Man(b1-4)GlcNAc(b1-4)GlcNAc
# Procedure, shortened: as §1
# [23] = biological target: Man(a1-2)Man(a1-2)Man(a1-6)[Man(a1-3)]Man
# Procedure, shortened: as §1
binder,measurement,setting,value
"FBG3 (Homo sapiens), Q9H4M3 (protein) MAVGNINELPENILLELFTHVPARQLLLNCRLVCSLWRDLIDLVTLWKRKCLREGFITEDWDQPVADWKIFYFLRSLHRNLLHNPCAEEGFEFWSLDVNGGDEWKVEDLSRDQRKEFPNDQVKKYFVTSYYTCLKSQVVDLKAEGYWEELMDTTRPDIEVKDWFAARPDCGSKYQLCVQLLSSAHAPLGTFQPDPATIQQKSDAKWREVSHTFSNYPPGVRYIWFQHGGVDTHYWAGWYGPRVTNSSITIGPPLP",glycan array binding signal (z-score),GalNAc(b1-4)GlcNAc,-0.3
same,glycan array binding signal (z-score),Glc(a1-4)Glc,0.004
same,glycan array binding signal (z-score),Glc(a1-6)Glc(a1-6)Glc,-0.316
same,glycan array binding signal (z-score),Glc(b1-4)Glc,0.304
same,glycan array binding signal (z-score),Glc(b1-6)Glc,1.71
same,glycan array binding signal (z-score),GlcA(b1-3)Gal,-0.025
same,glycan array binding signal (z-score),GlcA(b1-6)Gal,-0.048
same,glycan array binding signal (z-score),[1],-0.371
same,glycan array binding signal (z-score),[2],-0.134
same,glycan array binding signal (z-score),[3],-0.731
same,glycan array binding signal (z-score),[4],-0.115
same,glycan array binding signal (z-score),[5],-0.403
same,glycan array binding signal (z-score),GlcNAc(b1-3)Gal,-0.298
same,glycan array binding signal (z-score),[6],-0.297
same,glycan array binding signal (z-score),GlcNAc(b1-3)Gal(b1-4)Glc,-0.262
same,glycan array binding signal (z-score),[7],-0.488
same,glycan array binding signal (z-score),[8],-0.376
same,glycan array binding signal (z-score),GlcNAc(b1-3)GalNAc,-0.513
same,glycan array binding signal (z-score),[9],-0.089
same,glycan array binding signal (z-score),[10],-0.621
same,glycan array binding signal (z-score),[11],-0.356
same,glycan array binding signal (z-score),[12],-0.453
same,glycan array binding signal (z-score),[13],-0.435
same,glycan array binding signal (z-score),[14],-0.449
same,glycan array binding signal (z-score),[15],-0.54
same,glycan array binding signal (z-score),[16],-0.636
same,glycan array binding signal (z-score),[17],-0.499
same,glycan array binding signal (z-score),[18],-0.524
same,glycan array binding signal (z-score),[19],-0.592
same,glycan array binding signal (z-score),GlcNAc(b1-6)GalNAc,-0.448
same,glycan array binding signal (z-score),Kdn(a2-3)Gal(b1-3)GlcNAc,-0.588
same,glycan array binding signal (z-score),Kdn(a2-3)Gal(b1-4)GlcNAc,-0.316
same,glycan array binding signal (z-score),[20],-0.403
same,glycan array binding signal (z-score),[21],-0.329
same,glycan array binding signal (z-score),[22],0.292
same,glycan array binding signal (z-score),[23],-0.447
